# Source: PubChem BioAssay AID1745853 (National Center for Advancing Translational Sciences (NCATS), 2022)
# This is one part of the list. Further columns of the screen follow, without active or inactive calls.
# Key:
# Test in all cases: Primary Screen for Target Class Profiling of Small Molecule Inhibitors of Methyltransferases
# [1] = target: Glycine N-methyltransferase (Homo sapiens) (UniProt Q14749); conditions: purified enzyme, MTase-Glo SAH luminescence; measured here: GNMT inhibition; at 40 µM; stronger effect = lower value
# Method in brief: (§1)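 Each enzyme was reacted with SAM and its substrate, with compounds tested once at 40 uM; SAH formed was read by MTase-Glo luminescence.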
# [2] = target: Guanidinoacetate N-methyltransferase (Homo sapiens) (UniProt Q14353); conditions: purified enzyme, MTase-Glo SAH luminescence; measured here: GAMT inhibition; at 40 µM; stronger effect = lower value
# Method in brief: as §1
# [3] = target: Histamine N-methyltransferase (Homo sapiens) (UniProt P50135); conditions: purified enzyme, MTase-Glo SAH luminescence; measured here: HNMT inhibition; at 40 µM; stronger effect = lower value
# Method in brief: as §1
# [4] = target: Nicotinamide N-methyltransferase (Homo sapiens) (UniProt P40261); conditions: purified enzyme, MTase-Glo SAH luminescence; measured here: NNMT inhibition; at 40 µM; stronger effect = lower value
# Method in brief: as §1
# [5] = target: Phenylethanolamine N-methyltransferase (Homo sapiens) (UniProt P11086); conditions: purified enzyme, MTase-Glo SAH luminescence; measured here: PNMT inhibition; at 40 µM; stronger effect = lower value
# Method in brief: as §1
# % is scaled to controls: 0 for no effect and ±100 for the full control effect.
Structure (SMILES),"activity change, negative = inhibition [1]","activity change, negative = inhibition [2]","activity change, negative = inhibition [3]","activity change, negative = inhibition [4]","activity change, negative = inhibition [5]"
CC(C)CCN1C(=O)c2ccc(-c3ccco3)n2CC1(C)C(=O)NC1CCCC1 (stereo not given),-12.3%,-1.99%,4.23%,-11.5%,-6.62%
C[C@@H](N)C(=O)N1CCC2(CC1)CC(=O)N(Cc1cc(F)cc(F)c1)C2,-0.996%,-2.85%,1.01%,3.35%,-3.51%
Cc1cc(-c2nc(-c3ccc(OC(F)(F)F)cc3)no2)nn1Cc1ccnc(N2CCN(C3CC3)CC2)c1,-3.63%,-8.78%,7.36%,-23.2%,-3.88%
O=C(CSc1nnc2n(CCc3ccccc3)c(=O)c3ccccc3n12)Nc1ccc(F)cc1F,-2.75%,0%,9.04%,-5.25%,4.38%
Cn1nc2n(c1=O)CCC(NC(=O)c1n[nH]c3c1CC(C(C)(C)C)CC3)CC2 (stereo not given),-1.96%,-3.03%,-2.24%,-13.6%,-1.04%
CO[C@H]1[C@@H](O)[C@H](O[C@H]2CC[C@@]3(C)C(CCC4C3CC[C@]35COC6(COC(=O)C6)C3CCC45O)C2)O[C@@H](C)[C@@H]1OC1OC(CO)C(OC2OC(CO)C(O)C(O)C2O)C(O)C1O (stereo not given in full),1.49%,-1.97%,13.3%,-12.3%,-8.65%
CCc1ccc(N2C(=O)c3cc(C(=O)OC)nn3CC2(C)C(=O)NC2CCCCCC2)cc1 (stereo not given),-1.99%,0%,5.16%,-3.42%,-3.93%
O=C(NC1CCN(Cc2ccccc2)CC1)c1cccc2c1CCN2C(=O)c1ccccc1,-5.68%,-0.382%,-37.1%,-11.8%,-1.6%
CCc1cccc(CC)c1NC(=O)c1nn(C)c2c1CCc1cnc(Nc3ccc(C(=O)NC4CCN(C)CC4)cc3OC(F)(F)F)nc1-2,0.141%,9.4%,1.82%,-12.5%,-3.64%
C#CCN(Cc1cc2c(=O)[nH]c(C)nc2cc1Br)c1ccc(C(=O)NCc2cccnc2)cc1,-11.6%,5.3%,-4.09%,-8.84%,-10.2%
COCC1CCCN(C(=O)c2cc(Cn3c(C)nc4ccccc43)[nH]n2)C1 (stereo not given),-7.39%,-7.51%,-4.63%,-15.9%,-11.8%
COc1cc(OC)cc(-c2onc(C)c2C(=O)NCCC(c2ccccc2)c2ccccc2)c1,-4.32%,-8.94%,-4.29%,-13%,-20.6%
C=C1CC[C@@H]2[C@](C)(CO)[C@H](O)CC[C@@]2(C)[C@@H]1/C=C/C1=CCOC1=O,2.56%,1.65%,8.98%,-14.5%,-6.19%
O=C(C1CCc2nnc(-c3cccc(C(F)(F)F)c3)n21)N1CCCCC1 (stereo not given),0.746%,-1.66%,0.167%,-1.23%,1.15%
CC(=O)N1CCN(Cc2ccccc2-c2cccnc2)CC1,-2.38%,1.35%,-0.948%,-7.32%,9.35%
CC1(C(=O)NC2CCCCC2)Cn2nc(-c3cccs3)cc2C(=O)N1CCCc1ccccc1 (stereo not given),0.837%,0%,1.46%,-9.28%,1.38%
COc1ccc(N2C(=O)c3cc4ccccc4n3CC2(C)C(=O)NC2CCCCC2)cc1OC (stereo not given),-4.41%,1.3%,1.59%,-3.27%,-2.45%
COc1ccc(CNc2nc3c(S(=O)(=O)c4ccc(Cl)cc4)nnn3c3ccccc23)cc1,-4.09%,2.84%,-4.54%,-5.97%,-7.29%
O=C(C1CCCC1)N1C[C@@H](COc2ccncc2)[C@H](c2ccccn2)C1,-3.8%,-0.984%,-1.04%,-8.24%,-0.565%
COc1ccc(S(=O)(=O)n2cnc3cc(C)c(C)cc32)cc1,4.09%,6.88%,12.5%,-16.9%,5.14%
CCCn1c(=O)c2ccc(C(=O)NC3CCCCC3)cc2n2c(=O)n(CC(=O)c3ccc(C)cc3)nc12,3.24%,2.71%,7.51%,0.32%,2.28%
COc1ccccc1CNC(=O)C1(C)Cn2nc(-c3ccccc3)cc2C(=O)N1Cc1ccc(F)cc1 (stereo not given),6.87%,0%,11.4%,7.57%,3.38%
CCOc1ccccc1CN1C(=O)c2cc(C(C)(C)C)nn2CC1(C)C(=O)NC1CCCCC1 (stereo not given),-9.3%,-2.24%,-3.28%,-11.3%,-4.68%
CSCCC(NS(=O)(=O)c1ccc2c(c1)oc(=O)n2C)C(=O)NC1CCN(Cc2ccccc2)CC1 (stereo not given),13.6%,0%,9.01%,-0.609%,2.3%
CCCc1ccc(-c2nc(C3CCOC3)no2)cc1 (stereo not given),-3.76%,-0.321%,-0.434%,-4.7%,-1.71%
CC(C)(C)NS(=O)(=O)c1cncc(-c2cc(F)c3nc(N)nn3c2)c1,-4.55%,-1.03%,1.94%,-11.9%,0.435%
COc1ccc(NC(=O)N2CCC3(CC2)SCC(=O)N3c2ccc(F)cc2)cc1,-4.85%,-0.931%,0.014%,-2.05%,-0.901%
CCC(C)NC(=O)c1ccc2c(=O)n(Cc3ccccc3)c3nn(Cc4ccc(C)cc4)c(=O)n3c2c1 (stereo not given),7.15%,0%,4.45%,5.04%,3.65%
CCCS(=O)(=O)N1C[C@@H](Oc2cccnc2)C[C@H]1C(N)=O,-3.46%,-0.569%,-0.896%,-5.45%,9.29%
